Results as given in ChEMBL document CHEMBL4184171, “Design and synthesis of a biaryl series as inhibitors for the bromodomains of CBP/P300” (Bioorg Med Chem Lett, 2018).
≈ marks a conversion by molar mass, not a printed value.

How the values were obtained:
[1] = biological target: Bromodomain-containing protein 4 (Homo sapiens, UniProt O60885)
[2] = in vitro; settings: mouse, microsomes
[3] = in vitro; settings: rat, microsomes
[4] = in vitro; settings: human, microsomes
[5] = in vitro; settings: rat, hepatocytes
[6] = in vivo; settings: CD-1, mouse
[7] = in vitro; settings: human, plasma
[8] = in vivo; settings: CD-1, mouse, iv, 1 mg/kg
[9] = in vitro; settings: mouse, hepatocytes
[10] = in vitro; settings: mouse, plasma
[11] = in vivo; settings: CD-1, mouse, iv, 1 mg/kg; remark: listed apart in the source
[12] = in vitro; settings: dog, MDCK
[13] = biological target: hERG (KCNH2) (Homo sapiens, UniProt Q12809); test: in vitro
[14] = in vitro; settings: human, hepatocytes
[15] = in vivo; settings: CD-1, mouse, po, 5 mg/kg
[16] = in vitro; settings: rat, plasma
[17] = physchem; settings: buffer, pH 7.4

hERG (KCNH2), sequence (Q12809 whole entry): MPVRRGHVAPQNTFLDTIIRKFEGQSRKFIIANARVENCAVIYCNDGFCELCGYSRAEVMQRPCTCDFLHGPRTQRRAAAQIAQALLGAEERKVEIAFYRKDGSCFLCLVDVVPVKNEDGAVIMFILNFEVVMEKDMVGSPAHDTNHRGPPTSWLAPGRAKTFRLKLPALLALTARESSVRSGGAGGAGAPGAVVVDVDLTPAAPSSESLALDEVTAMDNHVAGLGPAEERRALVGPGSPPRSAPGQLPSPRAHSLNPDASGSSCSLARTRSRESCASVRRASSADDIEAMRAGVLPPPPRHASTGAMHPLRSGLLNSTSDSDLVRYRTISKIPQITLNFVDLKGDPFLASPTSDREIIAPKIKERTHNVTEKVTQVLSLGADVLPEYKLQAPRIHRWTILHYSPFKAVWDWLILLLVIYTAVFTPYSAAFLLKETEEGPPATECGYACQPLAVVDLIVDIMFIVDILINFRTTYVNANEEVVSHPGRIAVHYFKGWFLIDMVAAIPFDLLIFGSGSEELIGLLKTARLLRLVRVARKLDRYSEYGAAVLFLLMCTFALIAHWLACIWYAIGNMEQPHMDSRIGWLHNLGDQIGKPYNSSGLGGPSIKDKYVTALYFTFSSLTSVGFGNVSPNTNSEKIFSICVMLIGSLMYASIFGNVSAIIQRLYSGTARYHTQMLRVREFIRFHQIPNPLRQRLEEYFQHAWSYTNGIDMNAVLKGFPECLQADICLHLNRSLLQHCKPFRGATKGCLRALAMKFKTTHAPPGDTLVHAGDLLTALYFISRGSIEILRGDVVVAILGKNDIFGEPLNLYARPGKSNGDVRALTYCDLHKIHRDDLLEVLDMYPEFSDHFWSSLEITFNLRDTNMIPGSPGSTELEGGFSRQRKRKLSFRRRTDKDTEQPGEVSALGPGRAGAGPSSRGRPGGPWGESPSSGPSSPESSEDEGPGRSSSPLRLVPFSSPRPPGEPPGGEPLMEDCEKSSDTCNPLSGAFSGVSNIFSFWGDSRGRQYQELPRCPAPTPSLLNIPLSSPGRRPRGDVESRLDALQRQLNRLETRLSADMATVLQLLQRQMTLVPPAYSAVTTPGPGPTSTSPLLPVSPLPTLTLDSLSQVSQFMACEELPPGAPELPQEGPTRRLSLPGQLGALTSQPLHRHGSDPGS

Compound: CC(=O)N1CCc2c(c(-c3nccc4ccccc34)nn2C2CCOCC2)C1
- IC50 [1]: > 20 µM

Compound: CC(=O)N1CCc2c(c(-c3cccc4c3CC(=O)NC4)nn2C2CCOCC2)C1
- IC50 [1]: > 20 µM

Compound: CC(=O)N1CCc2c(c(-c3cccc4cc(-c5cnn(C)c5C#N)ncc34)nn2C2CCOCC2)C1
- CLhep predicted [2]: 2.16 L/h/kg
- CLhep predicted [3]: 1.2 L/h/kg
- CLhep predicted [4]: 0.66 L/h/kg

Compound: CC(=O)N1CCc2c(c(-c3cc(Cl)cc4ccncc34)nn2C2CCOCC2)C1
- IC50 [1]: 19 µM

Compound: CC(=O)N1CCc2c(c(-c3cccc4cc(-c5cnn(C)c5C(F)F)ncc34)nn2C2CCOCC2)C1
- IC50 [1]: 3.3 µM
- CLhep predicted [2]: 3.06 L/h/kg
- CLhep predicted [3]: 1.32 L/h/kg
- CLhep predicted [4]: 0.96 L/h/kg

Compound: CNC(=O)c1ccc(-c2cc3cccc(-c4nn(C5CCOCC5)c5c4CN(C(C)=O)CC5)c3cn2)cn1
- CLhep predicted [5]: 0.6 L/h/kg
- half-life [6]: 2 h
- CLhep predicted [2]: 2.16 L/h/kg
- fraction unbound [7]: 0.05
- clearance [8]: 1.08 L/h/kg
- CLhep predicted [9]: < 1.26 L/h/kg
- CLhep predicted [3]: 0.9 L/h/kg
- fraction unbound [10]: 0.1
- Vd [11]: 2.8 L/kg
- Papp A→B [12]: 120 nm/s
- inhibition at 1 h, 10 µM [13]: -5%
- CLhep predicted [14]: < 0.36 L/h/kg
- bioavailability [15]: 50%
- CLhep predicted [4]: 0.558 L/h/kg
- fraction unbound [16]: 0.04

Compound: CC(=O)N1CCc2c(c(-c3cccc4c(Cl)cncc34)nn2C2CCOCC2)C1
- IC50 [1]: 14 µM

Compound: CC(=O)N1CCc2c(c(-c3cccc4cc(-c5cn(C)nc5C(F)F)ncc34)nn2C2CCOCC2)C1
- IC50 [1]: 2.8 µM
- CLhep predicted [2]: 2.28 L/h/kg
- CLhep predicted [4]: 0.78 L/h/kg

Compound: CC(=O)N1CCc2c(c(-c3cccc4c(CO)cncc34)nn2C2CCOCC2)C1
- IC50 [1]: > 20 µM

Compound: CC(=O)N1CCc2c(c(-c3ccc(C#N)c4ccncc34)nn2C2CCOCC2)C1
- IC50 [1]: > 20 µM

Compound: CCc1cncc2c(-c3nn(C4CCOCC4)c4c3CN(C(C)=O)CC4)cccc12
- IC50 [1]: 15 µM

Compound: CC(=O)N1CCc2c(c(-c3ccc(CO)c4ccncc34)nn2C2CCOCC2)C1
- IC50 [1]: > 20 µM

Compound: CC(=O)N1CCc2c(c(-c3ccc(Cl)c4ccncc34)nn2C2CCOCC2)C1
- IC50 [1]: > 20 µM

Compound: CCc1cc(-c2nn(C3CCOCC3)c3c2CN(C(C)=O)CC3)c2cnccc2c1
- IC50 [1]: 7.8 µM

Compound: CC(=O)N1CCc2c(c(-c3ccc(C)c4ccncc34)nn2C2CCOCC2)C1
- IC50 [1]: 7.7 µM

Compound: COc1cc(-c2nn(C3CCOCC3)c3c2CN(C(C)=O)CC3)c2cnccc2c1
- IC50 [1]: 8.9 µM

Compound: CC(=O)N1CCc2c(c(-c3cccc4c(C#N)cncc34)nn2C2CCOCC2)C1
- IC50 [1]: > 20 µM

Compound: CNC(=O)N1CCc2c(c(-c3cccc4cc(-c5cnn(C)c5)c(C(F)F)cc34)nn2C2CCOCC2)C1
- IC50 [1]: 5.1 µM
- CLhep predicted [5]: < 0.6 L/h/kg
- half-life [6]: 1.4 h
- CLhep predicted [2]: 2.1 L/h/kg
- fraction unbound [7]: 0.16
- clearance [8]: 0.312 L/h/kg
- CLhep predicted [9]: < 1.26 L/h/kg
- CLhep predicted [3]: 1.08 L/h/kg
- fraction unbound [10]: 0.06
- Vd [11]: 0.6 L/kg
- Papp A→B [12]: 190 nm/s
- CLhep predicted [14]: < 0.36 L/h/kg
- bioavailability [15]: 73%
- solubility kinetic [17]: 95 µM (≈ 49.5 µg/mL)
- CLhep predicted [4]: 0.6 L/h/kg
- fraction unbound [16]: 0.06

Compound: CC(=O)N1CCc2c(c(-c3cc(C#N)cc4ccncc34)nn2C2CCOCC2)C1
- IC50 [1]: > 20 µM
